Assay results reported in patent publication US20150023989A1, “NEW ANTIBODY DRUG CONJUGATES (ADCS) AND THE USE THEREOF” (SEATTLE GENETICS, INC., priority 2011, published 2015).

Target: FGFR2 on the cell surface of human tumour cell lines (human), P21802
Assay: cell-based or functional assay

Binder | MFM-223, IC50, 72 hr (growth inhibition) | SNU-16, IC50, 72 hr (growth inhibition)
Example 1 (immunoconjugate of M048-D01-hIgG1, coupled to cysteine side chains) (antibody, here or on the partner: auristatin linker-toxophore on sulphur atoms of cysteine residues of the partially reduced antibody, positions not stated (drug/mAb ratio 3.7 for the antibody)) heavy: QVELLESGGGLVQPGGSLRLSCAASGFTFSSYAMSWVRQAPGKGLEWVSAISGSGTSTYYADSVKGRFTISRDNSKNTLYLQMNSLRAEDTAVYYCARVRYNWNHGDWFDPWGQGTLVTVSS[no letters for human IgG1 constant region] light: QSVLTQPPSASGTPGQRVTISCSGSSSNIGNNYVSWYQQLPGTAPKLLIYENYNRPAGVPDRFSGSKSGTSASLAISGLRSEDEADYYCSSWDDSLNYWVFGGGTKLTVLGQPKAAPSVTLFPPSSEELQANKATLVCLISDFYPGAVTVAWKADSSPVKAGVETTTPSKQSNNKYAASSYLSLTPEQWKSHRSYSCQVTHEGSTVEKTVAPTECS | 0.0907 nM | 0.214 nM
Example 7 (immunoconjugate of M048-D01-hIgG1-b, coupled to lysine side chains) (antibody, here or on the partner: auristatin linker-toxophore on side chain NH of lysine residues, positions not stated (drug/mAb ratio 6.1 for the antibody)) heavy: EVQLLESGGGLVQPGGSLRLSCAASGFTFSSYAMSWVRQAPGKGLEWVSAISGSGTSTYYADSVKGRFTISRDNSKNTLYLQMNSLRAEDTAVYYCARVRYNWNHGDWFDPWGQGTLVTVSS[no letters for human IgG1 constant region] light: QSVLTQPPSASGTPGQRVTISCSGSSSNIGNNYVSWYQQLPGTAPKLLIYENYNRPAGVPDRFSGSKSGTSASLAISGLRSEDEADYYCSSWDDSLNYWVFGGGTKLTVLGQPKAAPSVTLFPPSSEELQANKATLVCLISDFYPGAVTVAWKADSSPVKAGVETTTPSKQSNNKYAASSYLSLTPEQWKSHRSYSCQVTHEGSTVEKTVAPTECS | 0.628 nM | 0.209 nM
Example 2 (immunoconjugate of M048-D01-hIgG1, coupled to lysine side chains) (antibody, here or on the partner: auristatin linker-toxophore on side chain NH of lysine residues, positions not stated (drug/mAb ratio 3.9 for the antibody)) heavy: QVELLESGGGLVQPGGSLRLSCAASGFTFSSYAMSWVRQAPGKGLEWVSAISGSGTSTYYADSVKGRFTISRDNSKNTLYLQMNSLRAEDTAVYYCARVRYNWNHGDWFDPWGQGTLVTVSS[no letters for human IgG1 constant region] light: QSVLTQPPSASGTPGQRVTISCSGSSSNIGNNYVSWYQQLPGTAPKLLIYENYNRPAGVPDRFSGSKSGTSASLAISGLRSEDEADYYCSSWDDSLNYWVFGGGTKLTVLGQPKAAPSVTLFPPSSEELQANKATLVCLISDFYPGAVTVAWKADSSPVKAGVETTTPSKQSNNKYAASSYLSLTPEQWKSHRSYSCQVTHEGSTVEKTVAPTECS | 0.86 nM | 1.19 nM
Example 5 (immunoconjugate of M048-D01-hIgG1, coupled to cysteine side chains) (antibody, here or on the partner: auristatin linker-toxophore on sulphur atoms of cysteine residues of the partially reduced antibody, positions not stated (drug/mAb ratio 3.1 for the antibody)) heavy: QVELLESGGGLVQPGGSLRLSCAASGFTFSSYAMSWVRQAPGKGLEWVSAISGSGTSTYYADSVKGRFTISRDNSKNTLYLQMNSLRAEDTAVYYCARVRYNWNHGDWFDPWGQGTLVTVSS[no letters for human IgG1 constant region] light: QSVLTQPPSASGTPGQRVTISCSGSSSNIGNNYVSWYQQLPGTAPKLLIYENYNRPAGVPDRFSGSKSGTSASLAISGLRSEDEADYYCSSWDDSLNYWVFGGGTKLTVLGQPKAAPSVTLFPPSSEELQANKATLVCLISDFYPGAVTVAWKADSSPVKAGVETTTPSKQSNNKYAASSYLSLTPEQWKSHRSYSCQVTHEGSTVEKTVAPTECS | 4 nM | 0.496 nM
Example 6 (immunoconjugate of M048-D01-hIgG1, coupled to cysteine side chains) (antibody, here or on the partner: auristatin linker-toxophore on sulphur atoms of cysteine residues of the partially reduced antibody, positions not stated (drug/mAb ratio 2.7 for the antibody)) heavy: QVELLESGGGLVQPGGSLRLSCAASGFTFSSYAMSWVRQAPGKGLEWVSAISGSGTSTYYADSVKGRFTISRDNSKNTLYLQMNSLRAEDTAVYYCARVRYNWNHGDWFDPWGQGTLVTVSS[no letters for human IgG1 constant region] light: QSVLTQPPSASGTPGQRVTISCSGSSSNIGNNYVSWYQQLPGTAPKLLIYENYNRPAGVPDRFSGSKSGTSASLAISGLRSEDEADYYCSSWDDSLNYWVFGGGTKLTVLGQPKAAPSVTLFPPSSEELQANKATLVCLISDFYPGAVTVAWKADSSPVKAGVETTTPSKQSNNKYAASSYLSLTPEQWKSHRSYSCQVTHEGSTVEKTVAPTECS | 6.85 nM | 0.497 nM

The remaining lines, values ahead:

MFM-223, IC50, 72 hr (growth inhibition) | SNU-16, IC50, 72 hr (growth inhibition) | Binder
16.9 nM | 16.6 nM | Example 15 (immunoconjugate of M048-D01-hIgG1-b, coupled to cysteine side chains) (antibody, here or on the partner: auristatin linker-toxophore on sulphur atoms of cysteine residues of the partially reduced antibody, positions not stated (drug/mAb ratio 3.9 for the antibody)) heavy: EVQLLESGGGLVQPGGSLRLSCAASGFTFSSYAMSWVRQAPGKGLEWVSAISGSGTSTYYADSVKGRFTISRDNSKNTLYLQMNSLRAEDTAVYYCARVRYNWNHGDWFDPWGQGTLVTVSS[no letters for human IgG1 constant region] light: QSVLTQPPSASGTPGQRVTISCSGSSSNIGNNYVSWYQQLPGTAPKLLIYENYNRPAGVPDRFSGSKSGTSASLAISGLRSEDEADYYCSSWDDSLNYWVFGGGTKLTVLGQPKAAPSVTLFPPSSEELQANKATLVCLISDFYPGAVTVAWKADSSPVKAGVETTTPSKQSNNKYAASSYLSLTPEQWKSHRSYSCQVTHEGSTVEKTVAPTECS
4.78 nM | 2.05 nM | Example 9 (immunoconjugate of M048-D01-hIgG1-b, coupled to lysine side chains) (antibody, here or on the partner: auristatin linker-toxophore on side chain NH of lysine residues, positions not stated (drug/mAb ratio 6.1 for the antibody)) heavy: EVQLLESGGGLVQPGGSLRLSCAASGFTFSSYAMSWVRQAPGKGLEWVSAISGSGTSTYYADSVKGRFTISRDNSKNTLYLQMNSLRAEDTAVYYCARVRYNWNHGDWFDPWGQGTLVTVSS[no letters for human IgG1 constant region] light: QSVLTQPPSASGTPGQRVTISCSGSSSNIGNNYVSWYQQLPGTAPKLLIYENYNRPAGVPDRFSGSKSGTSASLAISGLRSEDEADYYCSSWDDSLNYWVFGGGTKLTVLGQPKAAPSVTLFPPSSEELQANKATLVCLISDFYPGAVTVAWKADSSPVKAGVETTTPSKQSNNKYAASSYLSLTPEQWKSHRSYSCQVTHEGSTVEKTVAPTECS
1.91 nM | 0.914 nM | Example 14 (immunoconjugate of M048-D01-hIgG1-b, coupled to cysteine side chains) (antibody, here or on the partner: auristatin linker-toxophore on sulphur atoms of cysteine residues of the partially reduced antibody, positions not stated (drug/mAb ratio 2.7 for the antibody)) heavy: EVQLLESGGGLVQPGGSLRLSCAASGFTFSSYAMSWVRQAPGKGLEWVSAISGSGTSTYYADSVKGRFTISRDNSKNTLYLQMNSLRAEDTAVYYCARVRYNWNHGDWFDPWGQGTLVTVSS[no letters for human IgG1 constant region] light: QSVLTQPPSASGTPGQRVTISCSGSSSNIGNNYVSWYQQLPGTAPKLLIYENYNRPAGVPDRFSGSKSGTSASLAISGLRSEDEADYYCSSWDDSLNYWVFGGGTKLTVLGQPKAAPSVTLFPPSSEELQANKATLVCLISDFYPGAVTVAWKADSSPVKAGVETTTPSKQSNNKYAASSYLSLTPEQWKSHRSYSCQVTHEGSTVEKTVAPTECS
10.3 nM | 0.519 nM | Example 10 (immunoconjugate of M048-D01-hIgG1-b, coupled to cysteine side chains) (antibody, here or on the partner: auristatin linker-toxophore on sulphur atoms of cysteine residues of the partially reduced antibody, positions not stated (drug/mAb ratio 4.4 for the antibody)) heavy: EVQLLESGGGLVQPGGSLRLSCAASGFTFSSYAMSWVRQAPGKGLEWVSAISGSGTSTYYADSVKGRFTISRDNSKNTLYLQMNSLRAEDTAVYYCARVRYNWNHGDWFDPWGQGTLVTVSS[no letters for human IgG1 constant region] light: QSVLTQPPSASGTPGQRVTISCSGSSSNIGNNYVSWYQQLPGTAPKLLIYENYNRPAGVPDRFSGSKSGTSASLAISGLRSEDEADYYCSSWDDSLNYWVFGGGTKLTVLGQPKAAPSVTLFPPSSEELQANKATLVCLISDFYPGAVTVAWKADSSPVKAGVETTTPSKQSNNKYAASSYLSLTPEQWKSHRSYSCQVTHEGSTVEKTVAPTECS
8.67 nM | 2.06 nM | Example 8 (immunoconjugate of M048-D01-hIgG1-b, coupled to cysteine side chains) (antibody, here or on the partner: auristatin linker-toxophore on sulphur atoms of cysteine residues of the partially reduced antibody, positions not stated (drug/mAb ratio 3.5 for the antibody)) heavy: EVQLLESGGGLVQPGGSLRLSCAASGFTFSSYAMSWVRQAPGKGLEWVSAISGSGTSTYYADSVKGRFTISRDNSKNTLYLQMNSLRAEDTAVYYCARVRYNWNHGDWFDPWGQGTLVTVSS[no letters for human IgG1 constant region] light: QSVLTQPPSASGTPGQRVTISCSGSSSNIGNNYVSWYQQLPGTAPKLLIYENYNRPAGVPDRFSGSKSGTSASLAISGLRSEDEADYYCSSWDDSLNYWVFGGGTKLTVLGQPKAAPSVTLFPPSSEELQANKATLVCLISDFYPGAVTVAWKADSSPVKAGVETTTPSKQSNNKYAASSYLSLTPEQWKSHRSYSCQVTHEGSTVEKTVAPTECS
0.431 nM | 0.254 nM | Example 13 (immunoconjugate of M048-D01-hIgG1-b, coupled to lysine side chains) (antibody, here or on the partner: auristatin linker-toxophore on side chain NH of lysine residues, positions not stated (drug/mAb ratio 1.5 for the antibody)) heavy: EVQLLESGGGLVQPGGSLRLSCAASGFTFSSYAMSWVRQAPGKGLEWVSAISGSGTSTYYADSVKGRFTISRDNSKNTLYLQMNSLRAEDTAVYYCARVRYNWNHGDWFDPWGQGTLVTVSS[no letters for human IgG1 constant region] light: QSVLTQPPSASGTPGQRVTISCSGSSSNIGNNYVSWYQQLPGTAPKLLIYENYNRPAGVPDRFSGSKSGTSASLAISGLRSEDEADYYCSSWDDSLNYWVFGGGTKLTVLGQPKAAPSVTLFPPSSEELQANKATLVCLISDFYPGAVTVAWKADSSPVKAGVETTTPSKQSNNKYAASSYLSLTPEQWKSHRSYSCQVTHEGSTVEKTVAPTECS
0.581 nM | 0.614 nM | Example 11 (immunoconjugate of M048-D01-hIgG1-b, coupled to cysteine side chains) (antibody, here or on the partner: auristatin linker-toxophore on sulphur atoms of cysteine residues of the partially reduced antibody, positions not stated (drug/mAb ratio 4.8 for the antibody)) heavy: EVQLLESGGGLVQPGGSLRLSCAASGFTFSSYAMSWVRQAPGKGLEWVSAISGSGTSTYYADSVKGRFTISRDNSKNTLYLQMNSLRAEDTAVYYCARVRYNWNHGDWFDPWGQGTLVTVSS[no letters for human IgG1 constant region] light: QSVLTQPPSASGTPGQRVTISCSGSSSNIGNNYVSWYQQLPGTAPKLLIYENYNRPAGVPDRFSGSKSGTSASLAISGLRSEDEADYYCSSWDDSLNYWVFGGGTKLTVLGQPKAAPSVTLFPPSSEELQANKATLVCLISDFYPGAVTVAWKADSSPVKAGVETTTPSKQSNNKYAASSYLSLTPEQWKSHRSYSCQVTHEGSTVEKTVAPTECS
0.145 nM | 0.389 nM | Example 12 (immunoconjugate of M048-D01-hIgG1-b, coupled to cysteine side chains) (antibody, here or on the partner: auristatin linker-toxophore on sulphur atoms of cysteine residues of the partially reduced antibody, positions not stated (drug/mAb ratio 4.0 for the antibody)) heavy: EVQLLESGGGLVQPGGSLRLSCAASGFTFSSYAMSWVRQAPGKGLEWVSAISGSGTSTYYADSVKGRFTISRDNSKNTLYLQMNSLRAEDTAVYYCARVRYNWNHGDWFDPWGQGTLVTVSS[no letters for human IgG1 constant region] light: QSVLTQPPSASGTPGQRVTISCSGSSSNIGNNYVSWYQQLPGTAPKLLIYENYNRPAGVPDRFSGSKSGTSASLAISGLRSEDEADYYCSSWDDSLNYWVFGGGTKLTVLGQPKAAPSVTLFPPSSEELQANKATLVCLISDFYPGAVTVAWKADSSPVKAGVETTTPSKQSNNKYAASSYLSLTPEQWKSHRSYSCQVTHEGSTVEKTVAPTECS
